# Data published in PubChem BioAssay AID445 (National Center for Advancing Translational Sciences (NCATS), 2006).
# Screen size: about 110,000 compounds; about 40 (0.04%) were called active. The shares of active, inactive and inconclusive entries below differ from those in the screen. Calls follow the shape of the dose curve; as a rule, active = well fitted curve in the direction sought with a large enough effect in the signal ratio (not every such curve was filed as active); inconclusive = small, poorly fitted or top-dose-only effect, or a change in a side signal; inactive = flat fitted curve, though single readings scatter; the % refers to the signal ratio. Potencies beside an inconclusive call are fits to weak or partial responses and may not hold up.
# Test: IkB Signaling;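 as to IkBa stabilization activation: 0% = basal untreated cells and 100% = reference inhibitor full response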
# Details: ABC-DLBCL IkBa-CBG/CBR dual luciferase ratio (green luciferase fused to IkBa over red control in OCI-Ly3 lymphoma cells), 4 h; IkBa stabilization activation: at 57.1 µM (top of the series), scaled: untreated 0%, proteasome inhibitor 100% unless noted
# Method in brief: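 In this assay, an IκBα–CBG68 fusion accumulates when IKK-driven degradation is blocked; native CBR normalizes for cell number. OCI-Ly3 cells were treated 4 h with compound and doxycycline, then green and red light read after Chroma-Glo addition.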
# Potency is read from the fitted curve at half-maximal effect.
Structure (SMILES),IkBa stabilization activation,Potency
CCOC(=O)CC(=O)CSc1nc(-c2cccnc2)ccc1C#N,inactive: -1.05%,–
Cc1ccccc1Nc1c(-c2ccncc2)nc2ccc(Cl)cn12,inconclusive: -4.8% [signal inhibitor],–
CC(C)c1nnc(NC(=O)CC(=O)Nc2ccccc2C(=O)O)s1,inconclusive: 13.1% [signal inhibitor],–
COc1cc(NC(=O)c2ccc(NC(=O)N3CCSc4ncccc43)cc2)cc(OC)c1,inconclusive: 3.58% [signal inhibitor],–
CC(C)(C)OC(=O)N1CCC(c2c(C(=O)N3CCN(C(=O)c4ccco4)CC3)cnn2-c2ccccc2)CC1,inconclusive: 4.79% [signal inhibitor],–
O=C(Nc1ccc(C(=O)Oc2ccccc2)c(O)c1)c1ccco1,inactive: 11.1%,–
COc1cccc(Nc2ncc3nc(-c4cc(F)cc(F)c4)c(=O)n(CCC#N)c3n2)c1,"inactive: -1.54% [at 11.4 µM, scaled: untreated 0%, proteasome inhibitor 100%]",–
CCC1CN(C(=O)Nc2ccc(C(=O)O)cc2)c2cc(Cl)ccc2O1 (stereo not drawn),inactive: 5.59%,–
Cc1ccc2nc(Cl)c3cc(C(=O)NC4CCCCCC4)sc3c2c1,inconclusive: -0.651% [signal inhibitor],–
C=CCn1c(SCC(=O)NCc2cccs2)nnc1C1CCCCC1,inactive: 0.793%,–
Cc1cccc(NC(=O)Cc2csc(COc3cccc(C)c3)n2)c1,inconclusive: 1.26% [signal inhibitor],–
COc1ccc(Oc2ncc3nc(-c4ccc(OC)cc4)c(=O)n(CCC#N)c3n2)cc1,"inactive: 2.89% [at 11.4 µM, scaled: untreated 0%, proteasome inhibitor 100%]",–
Cc1cc(C)cc(NC(=O)CCc2c(C)nc3c4cccnc4nn3c2C)c1,inconclusive: 3.15% [signal inhibitor],–
CC1=C(C(=O)Nc2ccccc2)C(c2ccc(C)o2)n2c(s/c(=C\c3ccco3)c2=O)=N1 (stereo not drawn),inconclusive: 4.61% [signal inhibitor],–
FC(F)(F)c1cccc(Nc2ncnc3ccccc23)c1,inconclusive: 1.12% [signal inhibitor],–
CCOc1ccc(S(=O)(=O)Nc2ccc(-c3ccc(OC)nn3)cc2)cc1,inconclusive: -1.7% [signal inhibitor],–
CN(O)/C=c1/ccc2c(n1)C(=O)C=CC=2,inactive: 5.46%,–
Cc1ccc(Cl)cc1NS(=O)(=O)c1cc2c3c(c1)CC(=O)N3CCC2,inactive: 0.903%,–
CN(CC(=O)Nc1ccc(Cl)cc1)CC(=O)Nc1cc(Cl)ccc1C#N,inconclusive: 1.64% [signal inhibitor],–
CCCNC(=O)N1CCN(S(=O)(=O)c2ccc3c(ccn3C)c2)CC1,inconclusive: 1.64% [signal inhibitor],–
Cc1ccc(CNC(=O)Cn2c(=O)n(-c3cccc(Cl)c3)c(=O)c3sc4ccccc4c32)cc1,–,inconclusive: 20 µM [signal inhibitor]
CCOc1ccc(-c2cc3nc(C4CCN(C(=O)OC(C)(C)C)CC4)c(C(=O)Nc4ccc(C)cc4C)cn3n2)cc1,inconclusive: 3.49% [signal inhibitor],–
Cc1ccc2c(c1)-c1c(cnn1CC(=O)Nc1ccccc1C#N)CO2,inconclusive: 4.16% [signal inhibitor],–

Structure (SMILES),IkBa stabilization activation,Potency
CC(=O)N1CCCc2cc(S(=O)(=O)N3CCCC(C(=O)N4CCN(c5cc(C)ccc5C)CC4)C3)ccc21 (stereo not drawn),inconclusive: 10.2% [signal inhibitor],–
Cc1ccc(C(=O)COC(=O)CCC(=O)Nc2ccc(Oc3cc(C)ccc3C(C)C)cc2)cc1,inconclusive: 6.01% [signal inhibitor],–
CCc1ccc(C2=NN(CCC(=O)NCCc3ccc(Cl)cc3)C(=O)CC2)cc1,inconclusive: 1.72% [signal inhibitor],–
O=C(NCC(c1ccccc1)c1ccccc1)c1nn(-c2ccccc2F)nc1CO,inconclusive: -0.857% [signal inhibitor],–
Oc1c(CN2CCN(c3ccccn3)CC2)cc(Cl)c2cccnc12,–,"inconclusive: 5.01 µM [rising, partial curve]"
Cc1ccc(CCNC(=O)CCSCc2ccccc2Cl)cc1,inconclusive: -1.9% [signal inhibitor],–
Oc1ccccc1OCc1nc2ccccc2s1,–,"inconclusive: 7.94 µM [signal inhibitor, partial curve]"
CCOC(=O)Cn1nnnc1C(C(C)C)N(Cc1cc2c(C)cc(C)cc2[nH]c1=O)C1CCCC1 (stereo not drawn),inconclusive: 3.86% [signal inhibitor],–
Cc1cc(Br)ccc1NC(=O)C1CCN(S(=O)(=O)c2ccc(Br)s2)CC1,inconclusive: 1.44% [signal inhibitor],–
CCOC(=O)c1ccc(N2C(=O)c3n[nH]c(-c4cccs4)c3C2c2ccc(Cl)cc2Cl)cc1 (stereo not drawn),inconclusive: 8.2% [signal inhibitor],–
COc1ccc(NC(=O)c2c(C)oc3ccc(O)c(CN4CCN(Cc5ccccc5)CC4)c23)cc1,inconclusive: 1.51% [signal inhibitor],–
COc1ccc(-n2nc(C(=O)Nc3ccc4c(c3)OCO4)c3c4ccccc4n(C)c3c2=O)cc1,inactive: -0.193%,–
Cc1ccc(NC(=O)CN2C(=O)C3(SCC(=O)N3c3ccc(F)c(F)c3)c3ccccc32)c(C)c1 (stereo not drawn),inconclusive: 4.86% [signal inhibitor],–
CCOCCCNC(=O)C(c1ccc(Cl)cc1)N(Cc1cccs1)C(=O)c1ccc(NC(C)=O)cc1 (stereo not drawn),inconclusive: 3.12% [signal inhibitor],–
Cc1cc(=O)n(CCc2ccccc2)c(O)c1C#N,inconclusive: 9.12% [signal inhibitor],–
Cc1ccc(-n2c(SCC(=O)NCc3ccco3)nnc2-c2cccnc2)c(C)c1,inconclusive: 5.47% [signal inhibitor],–
CN(C)c1ccc(C(CNC(=O)c2c(F)cccc2Cl)N2CCOCC2)cc1 (stereo not drawn),inconclusive: 11.1% [signal inhibitor],–
CC(C)(Oc1ccc(Cl)cc1)C(=O)Nc1nc2ccc(S(C)(=O)=O)cc2s1,inconclusive: 4.48% [signal inhibitor],–
COc1ccc(Cl)cc1NC(=O)NCC1CCN(Cc2ccccc2F)CC1,inconclusive: 0.0897% [signal inhibitor],–
COc1ccc(-n2c(=O)c3c4c(sc3n3c(SCCC(C)C)nnc23)COC(C(C)C)C4)cc1 (stereo not drawn),inconclusive: 3.95% [signal inhibitor],–
CN1C(=O)C2(SCC(=O)N2c2ccc(F)cc2)c2ccccc21 (stereo not drawn),inconclusive: 12.6% [signal inhibitor],–
COCCNC(=O)CSc1nc(-c2ccccc2C)nc2c1c(=O)n(C)c(=O)n2C,inconclusive: 0.296% [signal inhibitor],–
Cc1ccc(NC(=O)c2nc(S(C)(=O)=O)ncc2N(Cc2ccco2)Cc2ccco2)cc1C,inconclusive: 5.45% [signal inhibitor],–

Structure (SMILES),IkBa stabilization activation,Potency
O=C(O)CCCCCC[C@@H]1C(=O)NC(=O)N1CC[C@@H](O)C1CCCCC1,inactive: 11%,–
CCOc1ccc(Nc2c(S(=O)(=O)c3ccccc3)cnc3ccccc23)cc1,inconclusive: 0.162% [signal inhibitor],–
COc1cc(-c2ccc(N=C=O)c(OC)c2)ccc1N=C=O,inactive: -1.69%,–
Cc1ccc(NC(=O)c2c(C)oc3ccc(O)c(CN4CCCCC4)c23)c(C)c1,–,"inconclusive: 15.8 µM [signal inhibitor, partial curve]"
CCc1ccccc1NC1=NCC(=O)N1Cc1ccc(OC)cc1,inactive: 5.33%,–
CC1=C(C)CS(=O)N(S(=O)(=O)c2ccc(Cl)cc2)C1 (stereo not drawn),inactive: -0.637%,–
Cc1ccc(-c2nnc(Nc3ccc(S(N)(=O)=O)cc3)c3ccccc23)cc1S(=O)(=O)N1CCCCC1,–,"inconclusive: 25.1 µM [signal inhibitor, single point]"
CCOC(=O)c1c(NC(=O)CSc2nnc(C)s2)sc2c1CCN(C)C2,inactive: 0.0192%,–
O=C(Nc1ccc(F)cc1F)c1cc(-c2ccco2)on1,–,"inconclusive: 25.1 µM [signal inhibitor, partial curve]"
Cc1ccc(C)c(Cn2c(=O)cc(C)c3c(C)nn(C)c32)c1,inconclusive: 3.76% [signal inhibitor],–
CCn1c(C)c(C)c2cc(C(=O)NCc3cccc(C)c3)ccc21,inconclusive: 1.21% [signal inhibitor],–
Cc1cc(N2CCN(C)CC2)nc2ccc(NC(=O)c3ccc(Br)o3)cc12,inactive: -2.6%,–
O=C(c1ccccc1)N(Cc1ccco1)Cc1cccs1,inconclusive: -0.475% [signal inhibitor],–
COc1ccc(NC(=O)/C=C\C(=O)N(c2ccc(C(C)C)cc2)C(C(=O)NCc2ccco2)c2ccc(F)cc2)cc1 (stereo not drawn),inconclusive: 4.03% [signal inhibitor],–
Cc1cccc(C(=O)Nc2ccc(C(=O)OCc3cc(=O)n4nc(CC(C)C)sc4n3)cc2)c1,inactive: -0.343%,–
Nc1[nH]ncc1C(=O)Nc1cccc(C(F)(F)F)c1,inactive: -2.66%,–
COc1ccc(OCC(=O)N2CCN(C(=O)c3cccc(OC)c3)CC2)cc1,inconclusive: 1.55% [signal inhibitor],–
COc1ccccc1NC(=O)c1sc2nc(C)c(C(=O)Nc3ccc(C)cc3C)c(-c3ccc(C)o3)c2c1N,inconclusive: 16.6% [signal inhibitor],–
Cc1ccc(-n2ncc3c(N4CCN(C)CC4)ncnc32)cc1C,inconclusive: 0.106% [signal inhibitor],–
CCN(CC)C(=O)CN(c1ccc(F)c(Cl)c1)S(C)(=O)=O,inactive: -2.49%,–
CSCCC(NC(=O)OC(C)(C)C)C(=O)NC(CC(C)C)C(N)=O (stereo not drawn),inactive: 0.532%,–
O=C(C1CCN(S(=O)(=O)c2cccc3cccnc23)CC1)N1CCN(c2ccc(Cl)cc2)CC1,inconclusive: 3.78% [signal inhibitor],–
